Results as given in paper PMC7819943, “Rice protein-binding microarrays: a tool to detect cis-acting elements near promoter regions in rice”.
The list shows a part of the results.

The sequences below were run against T1, OsWOX13 (Oryza sativa, UniProt Q5QMM3 1-267) (assay: protein-binding microarray (RPBM); PBS, 2% BSA, 51.3 ng/ul salmon testes DNA, 50 uM zinc acetate, 200 nM TF, 25 C, 1 h; high values mean tight binding). Conditions: protein: recombinant; tags: N-terminal polyhistidine and DsRed monomer fusion (pET32a); label: CyDye5-dUTP incorporated in the synthesized complementary strand; 3' TTTTT single-stranded linker to array surface; dsDNA, one strand shown.
T1 sequence: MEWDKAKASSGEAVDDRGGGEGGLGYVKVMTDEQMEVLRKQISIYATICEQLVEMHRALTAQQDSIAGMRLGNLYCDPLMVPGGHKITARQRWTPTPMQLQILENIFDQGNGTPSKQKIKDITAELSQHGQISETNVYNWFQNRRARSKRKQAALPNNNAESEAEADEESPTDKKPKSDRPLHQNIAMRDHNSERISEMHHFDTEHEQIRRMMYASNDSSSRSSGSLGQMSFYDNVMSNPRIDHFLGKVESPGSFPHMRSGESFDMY
Summary of the method: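 The binding signal is fluorescence intensity per feature, in arbitrary units, read on an Axon 4000B scanner. Polyhistidine- and DsRed-tagged transcription factors (N-terminal fusions) from E. coli BL21-CodonPlus were purified on Ni–NTA and applied at 200 nM for 1 h at 25 °C to a double-stranded, BSA-blocked custom Agilent array in buffer with 50 µM zinc acetate.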

Row | Sequence | binding signal
1 | CAAACAATTGAGGCCCGCTTAATTTACATTATTAAGTGAACGGAGTCACCTAGTGCAG | 3850 fluorescence intensity (a.u.)
2 | AAAATTTAACAGAACTAATTTAATATTTTAGAAGTTGCTACGGAGTCACCTAGTGCAG | 34900 fluorescence intensity (a.u.)
3 | TTCCAATTAGGTCGTCACATATATTTTCACCGTAGAAGTTCGGAGTCACCTAGTGCAG | 9200 fluorescence intensity (a.u.)
4 | AATTAATTACTAGTCAAAATTTGGTCATCGGCCTGATTATCGGAGTCACCTAGTGCAG | 37500 fluorescence intensity (a.u.)
5 | CTGTAATTGAGTAATATTACTGTTGGTTGGCTGTTAATAGCGGAGTCACCTAGTGCAG | 42600 fluorescence intensity (a.u.)
6 | ACCTAGCTAACTGACTGAGATGTGACATGCTACTAGGAGTCGGAGTCACCTAGTGCAG | 8880 fluorescence intensity (a.u.)
7 | ACCCTAATAAGGCGTAATTTTATTTTACGTAAACGAGTTTCGGAGTCACCTAGTGCAG | 5660 fluorescence intensity (a.u.)
8 | AGTCAATTAATCATATGCTAATGACTCACCTCGTTTTGTGCGGAGTCACCTAGTGCAG | 50100 fluorescence intensity (a.u.)
9 | AGTTGACATATTCTCATACTGATATCATGATGTTTACATTCGGAGTCACCTAGTGCAG | 4880 fluorescence intensity (a.u.)
10 | ATATTAGATTGGTTACGGATAAATTAGAGCTAGTAGTTGGCGGAGTCACCTAGTGCAG | 52200 fluorescence intensity (a.u.)
11 | ATTGATTGCTCTTCGTCTCCCCTGGCTATAAAACGAGCGGCGGAGTCACCTAGTGCAG | 47700 fluorescence intensity (a.u.)
12 | TATGATAGACCAAAAGACAAACCGGAATGTCTGCTGCTAGCGGAGTCACCTAGTGCAG | 10700 fluorescence intensity (a.u.)
13 | ACGCCGATGCATGATGATTGCTGTAAATCATATACACTTCCGGAGTCACCTAGTGCAG | 8580 fluorescence intensity (a.u.)
14 | CGACAAGTTAATTTGGCAGACAGCTGTGATCTTGGCTCTCCGGAGTCACCTAGTGCAG | 8760 fluorescence intensity (a.u.)
15 | CTGATGATTAGATTTATCATGCTTCCGCGCTTCAAAAGGGCGGAGTCACCTAGTGCAG | 53400 fluorescence intensity (a.u.)
16 | ATTATATTAATTTTATGAAAACAGTATCGGTAATGACCGGCGGAGTCACCTAGTGCAG | 6110 fluorescence intensity (a.u.)
17 | TGCCACGGTTAGTTAGTTGATTAGTTATCTGCATGTTTACCGGAGTCACCTAGTGCAG | 4580 fluorescence intensity (a.u.)
18 | TTCCATAATAATTGACGTTTTGAACAAGGTTGATGTCAAACGGAGTCACCTAGTGCAG | 22700 fluorescence intensity (a.u.)
19 | ACGTAATTAATCCGTCATTAGTAAGTGTTTACTTAGCACCCGGAGTCACCTAGTGCAG | 35000 fluorescence intensity (a.u.)
20 | ACCAACTTTATATATAATTTTGATAGCAATGTCTAACATACGGAGTCACCTAGTGCAG | 4580 fluorescence intensity (a.u.)
21 | CTTGTGATTTGTTCATGACACAACTTGACACGGTTTGGGTCGGAGTCACCTAGTGCAG | 50000 fluorescence intensity (a.u.)

Row | Sequence | binding signal
22 | TCTAAATTTAATTAAAATCGACCGCGGCTCAATCAAAAGTCGGAGTCACCTAGTGCAG | 22100 fluorescence intensity (a.u.)
23 | AGTTGATTGGGCCTCCTTTTCGTGTAACATATGGGCCTCCCGGAGTCACCTAGTGCAG | 43300 fluorescence intensity (a.u.)
24 | TCGGCAAAATTAGCTCATGATGTACATATCAAGTTAGCATCGGAGTCACCTAGTGCAG | 3930 fluorescence intensity (a.u.)
25 | TTTTGATATGATTGATGCCATGCTCTGAACAACAATCACCCGGAGTCACCTAGTGCAG | 49200 fluorescence intensity (a.u.)
26 | AACTAATAGCTCCAAATTATCTATAGCCAATGTAATAGCTCGGAGTCACCTAGTGCAG | 8780 fluorescence intensity (a.u.)
27 | TAATAATAATATTATTTATTTCATAATTTCATGTACACATCGGAGTCACCTAGTGCAG | 4050 fluorescence intensity (a.u.)
28 | TTAAATTGTATTGGTTTCAAATATTATATTTAGTCTAAACCGGAGTCACCTAGTGCAG | 4610 fluorescence intensity (a.u.)
29 | TGATGTTTCATCACTAATTTGTATTTGATAACCTGCATATCGGAGTCACCTAGTGCAG | 5260 fluorescence intensity (a.u.)
30 | CTGTGCCAATCAGGACACCCAAATTGCCTGTCAATGCACACGGAGTCACCTAGTGCAG | 22900 fluorescence intensity (a.u.)
31 | TGGATTTGTATGTCTTAATTGAAGTTAGGCTATAAATTTGCGGAGTCACCTAGTGCAG | 10300 fluorescence intensity (a.u.)
32 | CTATAATAATTTATGATGCCCACGTATATAGTGTATTTGGCGGAGTCACCTAGTGCAG | 13100 fluorescence intensity (a.u.)
33 | ATCAAATTATCAGACAGACAGCTTTCACACTAGGTGAGCACGGAGTCACCTAGTGCAG | 29000 fluorescence intensity (a.u.)
34 | CGAATAATGTATTTTCCTGATTTATCTCGACCATATTCTGCGGAGTCACCTAGTGCAG | 5620 fluorescence intensity (a.u.)
35 | TATGTCTACTAATTGTCATCAGCTAGTTAATCCGGATTTACGGAGTCACCTAGTGCAG | 9090 fluorescence intensity (a.u.)
36 | GGCATCAAAATAAACAGACGCTGTATGTCAAATTCACATTCGGAGTCACCTAGTGCAG | 3600 fluorescence intensity (a.u.)
37 | ATCCAATCAACCACCAAGTCCACTACTATGATTCTTGGGCCGGAGTCACCTAGTGCAG | 18100 fluorescence intensity (a.u.)
38 | CACCAATAATTAAGCTGAGCGCAAGTCTCTCGCTTACTAGCGGAGTCACCTAGTGCAG | 4900 fluorescence intensity (a.u.)
39 | GATAATAACTGTTGGGATTGCTTAGAGGAAACTTGGTAGACGGAGTCACCTAGTGCAG | 8750 fluorescence intensity (a.u.)
40 | AACTTTGATTCTGTACAGTCAATTATGTCACAAACTAAAGCGGAGTCACCTAGTGCAG | 9370 fluorescence intensity (a.u.)
41 | ATAACGGGAATATAAACTATAAATTGATTGCTTGTACTATCGGAGTCACCTAGTGCAG | 29900 fluorescence intensity (a.u.)
42 | ATCGTTTTCTGTCCGCTTTGATTGTTATTGACCTAGCCACCGGAGTCACCTAGTGCAG | 7160 fluorescence intensity (a.u.)
